Data from the supplement of paper PMC9446081.
The whole screen tested about 39,000 compounds, of which about 220 (0.56%) showed activity. This is one part of the list.

The molecules below were run on Escherichia coli K-12 BW25113 (assay: relative growth (OD600 normalised to plate interquartile mean) (fraction); higher = less growth inhibition, active = 0.2 or less). Settings: 50 µM; LB; incubation time: overnight (16-24 h).
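Further: static incubation at 37 °C against the wild-type strain, values averaged over two biological replicates.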

**Q.** How did the relative growth turn out when `Cc1noc(C)c1NC(=O)Nc1ccc2c(c1)C(=O)N([C@@H](C)CO)C[C@@H](C)[C@@H](CN(C)C(=O)Nc1ccccc1)OCCCC[C@@H](C)O2` was run?
**A.** Its relative growth is inactive: 0.998.

**Q.** Which relative growth does the source give for `C[C@@H]1CN([C@H](C)CO)C(=O)c2cc(C#Cc3ccccn3)cnc2O[C@@H]1CN(C)C(=O)CCN1CCCCC1` here?
**A.** Its relative growth is inactive: 0.991.

**Q.** For `C[C@H]1CN([C@@H](C)CO)C(=O)c2cc(NC(=O)Cn3cnnn3)ccc2O[C@@H]1CN(C)S(=O)(=O)c1ccc(Cl)cc1`, which relative growth is on record?
**A.** Its relative growth is inactive: 1.02.

**Q.** With `C[C@H]1CN([C@@H](C)CO)C(=O)c2cc(NC(=O)Nc3ccc(F)cc3)ccc2O[C@H]1CN(C)S(C)(=O)=O` as the molecule, how does the relative growth read?
**A.** The relative growth was inactive: 1.02.

**Q.** With `C[C@@H]1CCCCO[C@@H](CN(C)C(=O)C2CCCCC2)[C@@H](C)CN([C@H](C)CO)C(=O)c2cc(NC(=O)c3ccccc3)ccc2O1` as the molecule, how does the relative growth read?
**A.** The relative growth was inactive: 0.982.

**Q.** For `C[C@@H]1CN([C@H](C)CO)C(=O)c2cccc(NC(=O)NC3CCCCC3)c2O[C@@H]1CN(C)C(=O)Nc1ccc(C(F)(F)F)cc1`, which relative growth is on record?
**A.** Its relative growth is inactive: 0.878.

**Q.** How did the relative growth turn out when `C[C@H](CO)N1C[C@H](C)[C@H](CN(C)Cc2ccc3c(c2)OCO3)OCCCC[C@H](C)Oc2ccc(NC(=O)c3ccccc3)cc2C1=O` was run?
**A.** The relative growth was inactive: 1.03.

**Q.** For `CCC[C@@H](O)C#Cc1cnc2c(c1)C(=O)N([C@H](C)CO)C[C@H](C)[C@H](CN(C)C(=O)Nc1ccccc1)O2`, which relative growth is on record?
**A.** The relative growth was inactive: 1.01.

**Q.** Which relative growth does the source give for `O=C(N[C@H]1CC[C@H](CCNS(=O)(=O)c2ccc(F)cc2)O[C@@H]1CO)C1CC1` here?
**A.** The relative growth was inactive: 1.

**Q.** With `Nc1ccc(F)cn1` as the molecule, how does the relative growth read?
**A.** Its relative growth is inactive: 0.993.

**Q.** `CCCC#Cc1cnc2c(c1)C(=O)N([C@@H](C)CO)C[C@@H](C)[C@@H](CN(C)C(=O)c1ccc3c(c1)OCO3)O2` was tested. Which relative growth did it give?
**A.** Its relative growth is inactive: 0.992.

**Q.** `C[C@@H]1O[C@@H](O[C@@H]2CC[C@@]3(C)[C@@H](CC[C@]4(C)[C@@H]3CC=C3[C@@H]5CC(C)(C)CC[C@]5(C(=O)O[C@@H]5O[C@H](CO[C@@H]6O[C@H](CO)[C@@H](O)[C@H](O)[C@H]6O)[C@@H](O)[C@H](O)[C@H]5O)CC[C@]34C)[C@]2(C)CO)[C@H](O)[C@H](O[C@@H]2OC[C@@H](O)[C@H](O)[C@H]2O)[C@H]1O` was tested. Which relative growth did it give?
**A.** The relative growth was inactive: 0.992.

**Q.** For `NCc1ccc(C(N)=O)cc1`, which relative growth is on record?
**A.** The relative growth was inactive: 1.01.

**Q.** For `CNC(=O)[C@H]1O[C@@H](n2cnc3c(NCc4cccc(I)c4)ncnc32)[C@H](O)[C@@H]1O`, which relative growth is on record?
**A.** Its relative growth is inactive: 0.991.

**Q.** `C[C@@H]1CN([C@H](C)CO)C(=O)c2cccc(NC(=O)Nc3cccc4ccccc34)c2O[C@H]1CN(C)C(=O)Nc1cccc2ccccc12` was tested. Which relative growth did it give?
**A.** The relative growth was inactive: 1.04.

**Q.** How did the relative growth turn out when `Cc1noc(C)c1NC(=O)N(C)C[C@@H]1OCCCC[C@@H](C)Oc2ccc(NC(=O)Nc3ccc4c(c3)OCO4)cc2C(=O)N([C@H](C)CO)C[C@@H]1C` was run?
**A.** Its relative growth is inactive: 1.04.

**Q.** `O=C(C[C@@H]1CC[C@H]2[C@@H](COC[C@H](O)CN2C(=O)c2ccccc2F)O1)N1CCN(c2ccccc2)CC1` was tested. Which relative growth did it give?
**A.** Its relative growth is inactive: 0.976.

**Q.** For `C[C@@H]1CN([C@@H](C)CO)S(=O)(=O)c2ccc(C#CC3(O)CCCC3)cc2O[C@H]1CN(C)C(=O)Nc1cccc(F)c1`, which relative growth is on record?
**A.** The relative growth was inactive: 1.02.

**Q.** With `C[C@@H]1CCCCO[C@@H](CN(C)Cc2ccc3c(c2)OCO3)[C@@H](C)CN([C@@H](C)CO)C(=O)c2cc(NC(=O)Nc3ccccc3)ccc2O1` as the molecule, how does the relative growth read?
**A.** Its relative growth is inactive: 1.05.

**Q.** `COc1ccc(CN(C)C[C@@H]2OCCCC[C@H](C)Oc3ccc(NS(=O)(=O)c4ccc(C)cc4)cc3C(=O)N([C@H](C)CO)C[C@@H]2C)cc1` was tested. Which relative growth did it give?
**A.** Its relative growth is inactive: 1.

**Q.** How did the relative growth turn out when `CC(C)NC(=O)N(C)C[C@H]1Oc2c(NS(=O)(=O)c3ccccc3)cccc2C(=O)N([C@H](C)CO)C[C@@H]1C` was run?
**A.** Its relative growth is inactive: 1.

**Q.** How did the relative growth turn out when `C[C@H]1CN([C@@H](C)CO)C(=O)c2cccc(NC(=O)Nc3ccc(F)cc3)c2O[C@@H]1CN(C)S(C)(=O)=O` was run?
**A.** Its relative growth is inactive: 1.

**Q.** `C[C@H](CO)N1C[C@H](C)[C@@H](CN(C)Cc2ccc3c(c2)OCO3)OCCCC[C@H](C)Oc2ccc(NS(=O)(=O)c3cccs3)cc2C1=O` was tested. Which relative growth did it give?
**A.** Its relative growth is inactive: 0.979.

**Q.** Which relative growth does the source give for `C[C@@H]1CN([C@@H](C)CO)C(=O)CCCn2cc(nn2)CO[C@H]1CN(C)C(=O)Nc1ccc2c(c1)OCCO2` here?
**A.** The relative growth was inactive: 0.995.

**Q.** For `Cc1ccc(Oc2ccccc2)c(NC(=O)c2ccccc2)c1`, which relative growth is on record?
**A.** Its relative growth is inactive: 1.01.

**Q.** `COc1ccc(NC(=O)Nc2ccc3c(c2)C(=O)N([C@H](C)CO)C[C@H](C)[C@H](CN(C)C(=O)Nc2ccc(F)cc2)OCCCC[C@@H](C)O3)cc1` was tested. Which relative growth did it give?
**A.** Its relative growth is inactive: 1.02.

**Q.** For `O=C(O)Cn1cc2c(n1)CCCC2`, which relative growth is on record?
**A.** The relative growth was inactive: 1.01.

**Q.** How did the relative growth turn out when `OC[C@H]1COc2ccccc2O1` was run?
**A.** Its relative growth is inactive: 0.965.

**Q.** With `O=C(O)CNC(=O)c1[nH]nc2ccccc12` as the molecule, how does the relative growth read?
**A.** The relative growth was inactive: 0.993.

**Q.** With `C[C@H](CO)N1C[C@H](C)[C@H](CN(C)C(=O)Nc2ccc(F)cc2)Oc2ccc(NC(=O)CCCCCC(=O)Nc3ccccc3N)cc2CC1=O` as the molecule, how does the relative growth read?
**A.** Its relative growth is inactive: 0.996.

**Q.** Which relative growth does the source give for `C[C@@H]1CN([C@H](C)CO)C(=O)c2cc(NC(=O)CCN3CCOCC3)ccc2O[C@H]1CN(C)S(=O)(=O)c1cccs1` here?
**A.** The relative growth was inactive: 1.01.

**Q.** For `C[C@@H]1CN([C@@H](C)CO)C(=O)c2cccc(NS(=O)(=O)c3cccs3)c2O[C@H]1CN(C)Cc1ccc(Cl)c(Cl)c1`, which relative growth is on record?
**A.** Its relative growth is inactive: 1.02.

**Q.** How did the relative growth turn out when `C[C@@H]1CCCCO[C@@H](CN(C)Cc2ccc(Cl)c(Cl)c2)[C@@H](C)CN([C@H](C)CO)C(=O)c2cc(NC(=O)Cc3ccccc3)ccc2O1` was run?
**A.** The relative growth was inactive: 1.02.

**Q.** How did the relative growth turn out when `C[C@@H]1CCCCO[C@@H](CN(C)Cc2ccc(C(=O)Nc3ccccc3N)cc2)[C@@H](C)CN([C@H](C)CO)C(=O)c2cc(NC(=O)Nc3ccc(C(F)(F)F)cc3)ccc2O1` was run?
**A.** Its relative growth is inactive: 0.982.

**Q.** For `C=C[C@](C)(O)CC/C=C(\C)C(=O)O[C@@H]1[C@@H](O[C@@](C)(C=C)CC/C=C(\C)C(=O)O[C@H]2C[C@@]3(C(=O)O[C@H]4OC[C@@H](O[C@H]5O[C@@H](CO)[C@@H](O)[C@@H](O[C@H]6O[C@@H](CO)[C@@H](O[C@H]7O[C@@H](CO)[C@@H](O)[C@@H](O)[C@@H]7O)[C@@H](O)[C@@H]6O)[C@@H]5O)[C@@H](O)[C@@H]4O)[C@@H](O)C[C@@]4(C)C(=CC[C@H]5[C@@]6(C)CC[C@@H](O[C@H]7O[C@@H](CO)[C@@H](O[C@H]8O[C@@H](CO)[C@@H](O)[C@@H](O[C@H]9OC[C@@H](O)[C@@H](O)[C@@H]9O)[C@@H]8O)[C@@H](O)[C@@H]7O)C(C)(C)[C@@H]6CC[C@@]54C)[C@@H]3CC2(C)C)OC[C@@H](O)[C@H]1O`, which relative growth is on record?
**A.** Its relative growth is inactive: 0.638.

**Q.** How did the relative growth turn out when `C[C@@H]1CCCCO[C@@H](CN(C)C(=O)Nc2ccc(C(F)(F)F)cc2)[C@H](C)CN([C@H](C)CO)C(=O)c2cc(NS(=O)(=O)c3ccccc3)ccc2O1` was run?
**A.** The relative growth was inactive: 1.04.

**Q.** `COc1cccc(S(=O)(=O)Nc2ccc3c(c2)[C@@H]2C[C@@H](CC(=O)NCc4cccc(F)c4)O[C@H](CO)[C@@H]2O3)c1` was tested. Which relative growth did it give?
**A.** The relative growth was inactive: 0.99.

**Q.** Which relative growth does the source give for `COCC#Cc1cnc2c(c1)C(=O)N([C@H](C)CO)C[C@@H](C)[C@H](CN(C)S(=O)(=O)c1cn(C)cn1)O2` here?
**A.** The relative growth was inactive: 0.97.

**Q.** With `C[C@H](CO)N1C[C@H](C)[C@H](CN(C)S(=O)(=O)c2ccccc2)OCCCC[C@H](C)Oc2ccc(NC(=O)Nc3cccc4ccccc34)cc2C1=O` as the molecule, how does the relative growth read?
**A.** Its relative growth is inactive: 1.06.

**Q.** Which relative growth does the source give for `C[C@@H]1CCCCO[C@H](CN(C)C(=O)c2ccccc2)[C@@H](C)CN([C@@H](C)CO)C(=O)c2cc(NC(=O)Cc3ccccc3)ccc2O1` here?
**A.** The relative growth was inactive: 1.03.

**Q.** Which relative growth does the source give for `C[C@H]1CN([C@@H](C)CO)C(=O)c2cc(NC(=O)Nc3ccc4c(c3)OCO4)ccc2O[C@@H]1CN(C)Cc1ccc(C(F)(F)F)cc1` here?
**A.** Its relative growth is inactive: 1.06.

**Q.** For `CCCN(C)C[C@@H]1Oc2cc(C#Cc3ccccc3OC)ccc2S(=O)(=O)N([C@@H](C)CO)C[C@@H]1C`, which relative growth is on record?
**A.** Its relative growth is inactive: 0.987.

**Q.** `Cn1nnc2cc(NC(=O)NCCO)ccc21` was tested. Which relative growth did it give?
**A.** Its relative growth is inactive: 0.925.

**Q.** `CO[C@H]1CN(C)C(=O)c2cc(NC(=O)C3CC3)ccc2OC[C@H](C)N(C(=O)Cc2ccccn2)C[C@H]1C` was tested. Which relative growth did it give?
**A.** Its relative growth is inactive: 1.04.

**Q.** How did the relative growth turn out when `Cc1noc(C)c1NC(=O)N(C)C[C@H]1OCCCC[C@H](C)Oc2ccc(NC(=O)Cc3ccccc3)cc2C(=O)N([C@@H](C)CO)C[C@@H]1C` was run?
**A.** The relative growth was inactive: 0.987.

**Q.** `C[C@H](CO)N1C[C@H](C)[C@H](CN(C)S(C)(=O)=O)Oc2c(NC(=O)Nc3ccc(F)cc3)cccc2C1=O` was tested. Which relative growth did it give?
**A.** Its relative growth is inactive: 1.

**Q.** How did the relative growth turn out when `CN1C(=O)c2cc(NC(=O)C3CCOCC3)ccc2OC[C@@H]2O[C@H](CC(=O)NCCc3ccncc3)CC[C@@H]21` was run?
**A.** Its relative growth is inactive: 0.994.

**Q.** `CC(C)NC(=O)Nc1ccc2c(c1)C(=O)N([C@@H](C)CO)C[C@H](C)[C@H](CN(C)C(=O)Nc1ccc3c(c1)OCO3)O2` was tested. Which relative growth did it give?
**A.** The relative growth was inactive: 0.979.

**Q.** With `C[C@@H]1CCCCO[C@@H](CN(C)C(=O)Nc2ccccc2)[C@@H](C)CN([C@@H](C)CO)C(=O)c2cc(NC(=O)Nc3ccc4c(c3)OCO4)ccc2O1` as the molecule, how does the relative growth read?
**A.** The relative growth was inactive: 1.02.

**Q.** How did the relative growth turn out when `COc1cccc(-c2ccc3c(c2)O[C@@H](CN(C)Cc2cncnc2)[C@@H](C)CN([C@@H](C)CO)S3(=O)=O)c1` was run?
**A.** Its relative growth is inactive: 1.01.

**Q.** Which relative growth does the source give for `C[C@H](CO)N1C[C@H](C)[C@H](CN(C)C(=O)c2ccncc2)Oc2cc(C#CC3(O)CCCC3)ccc2S1(=O)=O` here?
**A.** Its relative growth is inactive: 0.999.

**Q.** Which relative growth does the source give for `O=S(=O)(NCC[C@H]1CC[C@H](NS(=O)(=O)c2ccccc2Cl)[C@H](CO)O1)c1ccc(Cl)cc1` here?
**A.** Its relative growth is inactive: 0.999.

**Q.** `CCC(=O)Nc1ccc2c(c1)OC[C@@H](C)N(C(=O)CN1CCOCC1)C[C@@H](C)[C@@H](OC)CN(C)C2=O` was tested. Which relative growth did it give?
**A.** The relative growth was inactive: 1.03.
